# From PubChem BioAssay AID1240 (Sanford-Burnham Center for Chemical Genomics, 2008)
# Among all 50,000 compounds or so, about 800 (1.6%) showed an effect of 50% or more. This is one part of the list.
# Biological target: Bcl-2-like protein 10 (Homo sapiens) (UniProt Q9HD36)
# Assay: TR3 peptide-Bcl-B binding displacers, biochemical primary FP assay, phenotype converters (AID 1240);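 also: 0% = Bcl-B with tracer peptide and DMSO and 100% = tracer peptide lacking Bcl-B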
# Conditions: GST-Bcl-B / FITC-TR3 peptide fluorescence polarization; stronger effect = higher value; compound at 3.75 mg/L
# Sequence of UniProt Q9HD36 (Q9HD36 whole entry, looked up): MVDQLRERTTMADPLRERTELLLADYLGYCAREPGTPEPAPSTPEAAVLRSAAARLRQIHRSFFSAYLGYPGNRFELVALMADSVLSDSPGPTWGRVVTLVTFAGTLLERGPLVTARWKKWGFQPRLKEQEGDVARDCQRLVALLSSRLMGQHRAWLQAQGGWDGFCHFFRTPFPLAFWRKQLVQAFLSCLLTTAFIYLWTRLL
row,SMILES,displacement [%]
1,O=C1NC(=O)/C(=C\c2ccc(-c3cccc([N+](=O)[O-])c3)o2)S1,15
2,Nc1nc(-c2ccc(F)cc2F)cs1,-9.5
3,CCOc1cc(/C=N/NC(=O)c2ccccn2)cc([N+](=O)[O-])c1O,5.7
4,CC(C)COc1ccc(C(=O)N2CCCCCC2)cc1,-2.5
5,O=C(Nc1nnc(CCOCCc2nnc(NC(=O)c3cccs3)s2)s1)c1cccs1,-1.6
6,Cc1cc(NC(=O)/C=C/c2ccccc2Cl)ccc1Br,5.1
7,O=C(NC(=S)NCc1ccccc1)c1cccc(Cl)c1,14.4
8,CCCCSCC(O)COC(C)C (stereo not given),-10
9,CCOc1cccc(C(=O)NCc2ccncc2)c1,-8.9
10,O=c1c2c3n(c4cc(Cl)c([N+](=O)[O-])cc4c-2nn1-c1ccccc1)CCC3,2.6
11,Cc1ccc(N2NC(=O)/C(=C/c3ccc(-c4ccc5c(c4)COC5=O)o3)C2=O)cc1C,5.6
12,CCc1noc(-c2[nH]c3ccccc3c2C(=O)C(=O)N(C)C)c1C,-3.9
13,CCCOc1ccc(/C=C2\SC(=O)N(Cc3ccccc3)C2=O)cc1OC,21.9
14,O=C1c2ccc([N+](=O)[O-])cc2C(=O)N1Cc1ccc(Cl)cc1Cl,13.1
15,Cc1ccc(C(=O)N/C(=C/c2cccs2)c2nc3ccccc3[nH]2)cc1,47.2
16,O=C1CC(Sc2nc3ccccc3s2)C(=O)N1c1cc(Cl)ccc1Cl (stereo not given),9
17,O=C(Nc1ccc(F)cc1)Nc1ccc(OC(F)(F)F)cc1,-8.5
18,CNC(=O)/C=C/c1ccc2c(c1)OCO2,6.9
19,CC1(c2ccccc2)CC(C)(C)N(C(=O)CN2CCCCC2)c2ccccc21 (stereo not given),-13.2
20,CCc1ccc2oc(-c3ccc(C)c(NC(=O)c4cc(OC)cc(OC)c4)c3)nc2c1,13.4
21,COc1ccc(OC)c(/C=C/C(=O)c2ccc(Cl)cc2)c1,-5.2
22,CCC1=NN2C(=N)/C(=C/c3ccc(-c4cccc(C(=O)O)c4)o3)C(=O)N=C2S1,1.4

row,SMILES,displacement [%]
1,Cc1ccccc1N/C=C\C(=O)c1ccc([N+](=O)[O-])cc1,-5.5
2,Cc1cc(C)c(NS(=O)(=O)c2ccc3ccccc3c2)c(C)c1,2.5
3,O=C(COc1ccccc1)Nc1ccc(Br)c(Cl)c1,2.3
4,CCOC(=O)c1cc(=O)oc2c(C(=O)OCC)c(C)[nH]c12,-8.7
5,COc1cc(C(=O)N/C(=C/c2ccc(Br)cc2)C(=O)NC(C(=O)O)C(C)C)cc(OC)c1OC (stereo not given),0
6,CC(C(=O)NCc1ccccc1)N1C(=O)c2ccccc2C1=O (stereo not given),-10.1
7,COc1ccc(/C=C/C(=O)Nc2ccc([N+](=O)[O-])cc2OC)cc1Br,15.6
8,CCCCOc1cccc(NC(=O)c2cccc([N+](=O)[O-])c2C)c1,5
9,COc1ccc2c(c1)/C(=N\OC(=O)c1ccc(OC)c([N+](=O)[O-])c1)CCC2,-5.3
10,COCCCNC(=O)C(=O)Nc1ccccc1C,1.2
11,C=CCOc1ccc(/C=C2/C(=O)NC(=O)N(c3cccc(C)c3)C2=O)cc1OCC,126
12,COc1ccc(-c2cc(C(=O)Nc3ccc(C)c(C)c3)c3ccccc3n2)cc1,4.8
13,CCOC(=O)c1c(NC(=O)/C=C/c2ccc(OC)c(OC)c2)sc2c1CC(C)(C)OC2,12.4
14,Cc1ccc(C(=O)NCC(=O)c2ccc(Br)cc2)cc1,4.5
15,COc1ccc(C(=O)Nc2sc3c(c2C(N)=O)CCCC3)cc1,16.7
16,Cc1cc(NC(=O)c2ccc(Cl)cc2Cl)no1,-2.3
17,Cc1ccc(OCC(=O)Nc2sc3c(c2C(N)=O)CCC(C)C3)c(C)c1 (stereo not given),10.8
18,CCOc1cc(/C=C2\SC(=S)N(NC(=O)c3ccc([N+](=O)[O-])cc3)C2=O)ccc1O,11.1
19,Cc1cc(C)c2nc(Nc3ncc(O)[nH]3)nc(C)c2c1,-12.7
20,Cn1c(=O)c(C2=NS(=O)(=O)c3ccccc3N2)c(O)c2ccccc21,2.1
21,OCCNCCCCOc1ccccc1Cl,8.5
22,O=C(Nc1ccc2c(c1)oc1ccccc12)c1ccco1,7.9

row,SMILES,displacement [%]
1,CC(C(=O)O)n1nnc(-c2ccccc2)n1 (stereo not given),2.5
2,CCOC(=O)c1sc(NC(=O)c2ccc(Cl)cc2[N+](=O)[O-])nc1C,-5.1
3,Cc1c(C(c2cc([N+](=O)[O-])cc([N+](=O)[O-])c2O)c2c(C)n(C)n(-c3ccccc3)c2=O)c(=O)n(-c2ccccc2)n1C,-5.3
4,c1ccc(-c2nc3ccccc3nc2-c2cccs2)cc1,13.4
5,CCC1CCCCN1C(=O)Cn1nc([N+](=O)[O-])c(Cl)c1C (stereo not given),-10
6,CCCN(CCC)C(=O)c1ccc(C(=O)c2cc(OC)ccc2OC)cc1,-18.5
7,CCOC(=O)c1c(C)[nH]c(C=Nc2ccccc2)c1O,4.5
8,COC(=O)c1ccccc1NC(=O)Cc1ccc(OC)c(OC)c1,26.1
9,O=C1/C(=C\c2cc(Cl)ccc2O)SC(=S)N1Cc1ccccc1,-5.4
10,CC/C(C)=N/Oc1nc(N)nc(N(C)C)n1,-2.2
11,COc1ccc(NC(=O)CCCOc2ccccc2)c([N+](=O)[O-])c1,-5
12,COc1ccc(O)c(CN2CCN(Cc3cccc([N+](=O)[O-])c3)CC2)c1,13.7
13,COc1cccc(OCCNc2cc(N3CCCC3)ccc2[N+](=O)[O-])c1,0.6
14,Cc1ccccc1/C=N/N1CCN(c2ccccc2)CC1,-8.7
15,O=C(O)CCCN1C(=O)C(=O)/C(=C(/O)c2ccccc2)C1c1ccc(F)cc1 (stereo not given),1.1
16,Nc1cccc(-n2nncc2-c2ccccc2)c1,8.5
17,CCOC(=O)C1=C(C)NC(=O)CC1c1ccccc1F (stereo not given),0.1
18,O=C(Nc1c(Cl)cccc1Cl)c1ccccc1[N+](=O)[O-],1.8
19,COc1cc(OC)c(OC)cc1CN1CCN(C2CCCCC2OC)CC1 (stereo not given),-10.6
20,CCCCOc1ccccc1NC(=O)C(c1ccccc1)c1ccccc1,-16.9
21,O=C(COc1ccc2ccccc2c1)Nc1cccc(I)c1,-8.2
22,CCOC(=O)C(CCOCCOc1ccc(Cl)cc1C)C(=O)OCC,11.2

row,SMILES,displacement [%]
1,O=C(Cc1nnn(-c2ccccc2)n1)c1cccc([N+](=O)[O-])c1,3.1
2,C/C(=N/Nc1ccc([N+](=O)[O-])cc1)c1ccc2c(c1)C1C=CCC1C(c1cccc([N+](=O)[O-])c1)N2 (stereo not given),-14.4
3,O=c1c2ccccc2nc(/C=C/c2cccc([N+](=O)[O-])c2)n1-c1cccc2ccccc12,5
4,Cc1ccc(NC(=O)c2ccc([N+](=O)[O-])cc2)c(C(=O)c2ccccc2)c1,11.7
5,CCN1C(=O)/C(=C/c2ccc(NC(=O)c3ccc4ncccc4c3)cc2)SC1=S,37.7
6,O=[N+]([O-])c1ccc(C2Nc3c(cccc3C(F)(F)F)C3C=CCC32)cc1 (stereo not given),16.8
7,COc1ccc(C(N)=O)cc1S(=O)(=O)N1CCOCC1,7.5
8,CCOC(=O)c1c(CC(C)C)csc1NC(=O)C1CC1,-0.3
9,COc1cc(NC(=O)c2cccc([N+](=O)[O-])c2)cc(OC)c1,1.1
10,O=C1NN(c2ccccc2)C(=O)/C1=C/c1ccccc1OCc1ccc(F)cc1,8.2
11,CCSc1nc2ccccc2n1CC(=O)Nc1ccc(F)cc1,12.5
12,O=C(COc1ccc2ccc(=O)oc2c1)Nc1cccc2ccccc12,10.7
13,Cc1ccc(C(=O)Nc2ccccc2C(=O)NCCCC(=O)O)cc1,-2.3
14,CCc1ccc(N2CC(C(=O)N/N=C/c3cccc([N+](=O)[O-])c3)CC2=O)cc1 (stereo not given),2.1
15,Cc1cc(C)cc(-n2c(C)cc(/C=C3\NC(=S)NC3=O)c2C)c1,12.1
16,COC(=O)COc1ccc(/C=C(/C#N)C(=O)Nc2cccc(Br)c2)cc1OC,-8.7
17,Cc1cccc(NC(=O)CCC(=O)NCCO)c1,-3.7
18,O=C(Cc1cccs1)NNC(=O)c1cccc(Cl)c1,-0.3
19,COc1cccc(OC)c1C(=O)Nc1ccccc1NC(C)=O,3.8
20,CC(C)(C)c1ccc(OCCOc2ccccc2C=C2C(=O)NC(=S)NC2=O)cc1,-5.2
21,O=C(Nc1ccc(S(=O)(=O)Nc2ncccn2)cc1)c1ccccc1Br,-14.8
22,Cc1nnc(N2C(=O)C3CCC(C)(C2=O)C3(C)C)s1 (stereo not given),-11.7

row,SMILES,displacement [%]
1,O=C(C1=C(O)C(=O)N(c2nncs2)C1c1ccccc1F)c1cccs1 (stereo not given),129
2,COc1ccc(C(=O)NNC(=O)c2ccccc2O)cc1,-9.6
3,CC(=O)Oc1ccc(-c2cccc(C(=O)Nc3ccccc3Cl)c2)cc1,12.6
4,COc1ccc(-c2cc(C(F)(F)F)n3nc(C(=O)NCc4ccco4)c(Cl)c3n2)cc1OC,-5.3
5,CC(C)C(NC(=O)c1ccc(N(C)S(=O)(=O)c2ccccc2)cc1)C(C)C,11.6
6,C=CCOc1ccc(CN2CCCCC2)cc1,-4
7,COC(=O)c1cc(C(=O)NCCCN(C)C)cc([N+](=O)[O-])c1,-4.2
8,FC(F)(F)c1cc(/C=C/c2ccccc2)no1,7.7
9,COc1ccc2c(c1OC)C(=O)OC2Nc1ccccc1[N+](=O)[O-] (stereo not given),7.8
10,O=C(c1ccc([N+](=O)[O-])cc1Cl)N(Cc1ccccc1)c1ccccn1,16.8
11,COc1ccc(C(=O)c2coc3cc(Br)c(O)c(Br)c23)cc1,-13
12,Cc1ccc(NC(=O)CCC(=O)N2CC(=O)NC(=O)C2)cc1,0.1
13,Cc1cccc(C(=O)NN=C2CCN(C)CC2)c1,-5.4
14,CC1CCC2(CC1)OCC1(CCC3(COC4(CCC(C)CC4)OC3)C1=O)CO2 (stereo not given),1.5
15,CC(=O)N1c2ccccc2N(Cc2ccc(C)cc2C)C(=O)C1(C)C,10
16,COc1ccc(Cl)cc1C(=O)Nc1ccc(O)c(-c2nc3ccccc3o2)c1,-22.2
17,Cc1ccc2c(Cl)c(C(=O)Nc3ccc4c(c3)OCCO4)sc2c1,12.3
18,O=C(NCC1CCCO1)C(=O)Nc1ccc(Cl)c(C(F)(F)F)c1 (stereo not given),-6.4
19,Cc1ccc(C(=O)Nc2ncccc2Cl)cc1C,-10.2
20,CCc1ccc(N2NC(=O)/C(=C/c3ccc(-c4ccc(S(N)(=O)=O)cc4)o3)C2=O)cc1,3.4
21,COc1ccc(NC(=O)c2ccc(OC(C)=O)cc2)cc1O,13.6
22,O=C(CN(Cc1ccccc1)S(=O)(=O)c1ccccc1)Nc1ccc(Br)cc1,5.7
